Assay results published in the supplement of paper PMC5655136.
Values come from read counts of a selection and are noisy.

System: NB7
Assay: fold depletion of shRNA, plasmid library share / infected cells without Dox share (9 days) (ratio); higher = more depleted after infection (more toxic, leaky expression from a Tet-inducible vector; NB7 is a neuroblastoma line without caspase-8)
Experimental: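 Pooled lethality screen in NB7 neuroblastoma cells infected with Dox-inducible pTIP shRNA libraries. The libraries tile every 21-mer of the Venus, CD95L or CD95 ORF / 3'UTR; each hairpin is the 21-nt sense sequence + CTCGAG loop + antisense. Cells were cultured 9 days with or without 100 ng/ml Dox. shRNA representation was measured by deep sequencing of the genomic inserts, normalised to the total reads per subpool and averaged over technical replicates. Fold depletion is the plasmid library share / infected cells without Dox share (mean of 2 biological replicates), and the -Dox/+Dox share ratio is the mean of 4 replicate pairings; higher values mean more depletion (toxicity).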

[1] = shRNA pool: CD95 ORF + CD95 3'UTR + Venus libraries
[2] = shRNA pool: CD95L ORF + CD95L 3'UTR + Venus libraries
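Further: shRNA barcodes quantified by deep sequencing of PCR amplicons from cellular DNA, counts expressed as percent of each subpool, ratio averaged over two biological duplicates.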

Row | Sequence | fold depletion of shRNA [1] | fold depletion of shRNA [2]
1 | AAGGAAAGCTAGGGACTGCAC | 2.28 | 
2 | AAGGAAGACTAGAGGCTTGCA |  | 0.911
3 | AAGGAAGTACAGAAAACATGC | 1.17 | 
4 | AAGGAATGCACACTCACCAGC | 0.973 | 
5 | AAGGACACCTTTTAACTCACC |  | 2.18
6 | AAGGACATGGCTTAGAAGTGG | 0.858 | 
7 | AAGGACATTACTAGTGACTCA | 2.58 | 
8 | AAGGACGACGGCAACTACAAG | 1.41 | 1.96
9 | AAGGAGCTGAGGAAAGTGGCC |  | 8.04
10 | AAGGAGCTGGCAGAACTCCGA |  | 3.72
11 | AAGGAGGACGGCAACATCCTG | 1.24 | 1.8
12 | AAGGAGGCCACCACCACCACC |  | 24
13 | AAGGATGTTTAAAATCTAGTT | 0.872 | 
14 | AAGGCAAGACTGCCCTTAGAA | 3.38 | 
15 | AAGGCCAACTTCAAGATCCGC | 1.08 | 1.19
16 | AAGGCCTGCATCATGATGGCC | 0.503 | 
17 | AAGGCTACGTCCAGGAGCGCA | 1.36 | 2.06
18 | AAGGCTCTACCTCAAAGACCT | 2.52 | 
19 | AAGGCTTTGTTCGAAAGAATG | 1.24 | 
20 | AAGGGAAGGAGTACACAGACA | 0.939 | 
21 | AAGGGATGGAAAAGGAAGACT |  | 0.873
22 | AAGGGATTGGAATTGAGGAAG | 1.29 | 
23 | AAGGGCATCGACTTCAAGGAG | 0.634 | 1.7

Row | Sequence | fold depletion of shRNA [1] | fold depletion of shRNA [2]
24 | AAGGGCGAGGAGCTGTTCACC | 0.961 | 0.559
25 | AAGGGGGACTGTCTTTCAGAT |  | 0.826
26 | AAGGTCCATGCCTCTGGAATG |  | 2.9
27 | AAGGTCTACATGAGGAACTCT |  | 1.11
28 | AAGGTGGGCCTTGCTACCTCA |  | 1.19
29 | AAGGTTCTCATGAATCTCCAA | 3.95 | 
30 | AAGTAAGAAGACATGAACCAA |  | 1.57
31 | AAGTACAGAAAACATGCAGAA | 1.93 | 
32 | AAGTACATATTAGGAAAATAT |  | 0.777
33 | AAGTACCCAAATAGGAGTGTA | 2.21 | 
34 | AAGTACGTAATTAAATAATGT | 0.925 | 
35 | AAGTAGCTTTGTGACATGTCA | 0.351 | 
36 | AAGTATAAGAAGGGTGGCCTT |  | 0.606
37 | AAGTATACTTCCGGGGTCAAT |  | 5.24
38 | AAGTATATGTATTTGAGTGCA | 1.53 | 
39 | AAGTCAAGTTAAAGGCTTTGT | 1.02 | 
40 | AAGTCCGCCATGCCCGAAGGC | 0.549 | 0.695
41 | AAGTGACTGACATCAACTCCA | 2.12 | 
42 | AAGTGCAAAGAGGAAGGATCC | 2.27 | 
43 | AAGTGCAGATGTAAACCAAAC | 2.22 | 
44 | AAGTGGAAATAAACTGCACCC | 3.82 | 
45 | AAGTGGACCTTGAGACCACAG |  | 5.06
46 | AAGTGGCCCATTTAACAGGCA |  | 1.95

Row | Sequence | fold depletion of shRNA [1] | fold depletion of shRNA [2]
47 | AAGTGTTAATGCCCAAGTGAC | 3.54 | 
48 | AAGTTAAAGGCTTTGTTCGAA | 1.19 | 
49 | AAGTTCAACTGCTTCGTAATT | 1.72 | 
50 | AAGTTCAGCGTGTCCGGCGAG | 2.48 | 1.74
51 | AAGTTCGAGGGCGACACCCTG | 1.42 | 3.16
52 | AAGTTTCTAAGATTTAAGATT | 1.91 | 
53 | AAGTTTGTATTAAATGTGAAT | 0.795 | 
54 | AATAAAAAGTATATGTTAGGA |  | 0.493
55 | AATAAACTGCACCCGGACCCA | 1.55 | 
56 | AATAAATATTTATGTAGATGT |  | 1
57 | AATAAATTTATCTGATGTTGA | 1.09 | 
58 | AATAAGCTAAAGAGGCTGAAA |  | 1.85
59 | AATAATATTTATATTTCTGTA | 0.989 | 
60 | AATAATGTCCCATGTAAAACC | 2.13 | 
61 | AATACCAAGTGCAGATGTAAA | 0.805 | 
62 | AATACTGCTTGGTTTTTTACT | 1.74 | 
63 | AATACTTAATAGTCCACCAAA | 1.36 | 
64 | AATAGATGAGATCAAGAATGA | 1.14 | 
65 | AATAGATTCTTATTTTTCCCC | 1.31 | 
66 | AATAGGAGTGTATGCAGAGGA | 1.06 | 
67 | AATAGTGCTTAAAAATCATTG |  | 0.879
68 | AATATAATAAATATTTATGTA |  | 0.97
69 | AATATAGGTAAAAGTACGTAA | 0.933 | 

Row | Sequence | fold depletion of shRNA [1] | fold depletion of shRNA [2]
70 | AATATATCACCACTATTGCTG | 1.03 | 
71 | AATATCACCAAAAAATACTTA | 0.886 | 
72 | AATATCAGTTACTGAACAGGC | 1.48 | 
73 | AATATCTCATGATTCTGCCTC | 0.977 | 
74 | AATATCTTTGAAAGTTTGTAT | 1.05 | 
75 | AATATGACGGAAGAACATAGA |  | 2.08
76 | AATATTTATATTTCTGTAAAT | 1.24 | 
77 | AATATTTCAATTGTGAATTCA | 1.08 | 
78 | AATCAAAGATGATAAAATAGA | 0.931 | 
79 | AATCAACTCTAATAGTGCTTA |  | 0.79
80 | AATCAATAGAAGAAGCTATGA | 1.25 | 
81 | AATCAGTGTATGTTAGTACAA | 0.873 | 
82 | AATCATCAAGGAATGCACACT | 1.62 | 
83 | AATCATCATCTGGATTTAGGA | 1.05 | 
84 | AATCATTGATTGTCAGCTACT |  | 2.23
85 | AATCCTGAAACAGTGGCAATA | 1.41 | 
86 | AATCTAGTTGGGAAAACAAAC | 0.852 | 
87 | AATCTCAGACGTTTTTCGGCT |  | 10
88 | AATCTCCAACTTTAAATCCTG | 1.09 | 
89 | AATCTTACCAGTGCTGATCAT |  | 1.57
90 | AATCTTTGTACTCTTGCAGAG | 1.08 | 
91 | AATGAAAACATGTAATAAAAA |  | 0.501
92 | AATGAAACTGGGCTGTACTTT |  | 1.12

Row | Sequence | fold depletion of shRNA [1] | fold depletion of shRNA [2]
93 | AATGAAATCCAAAGCTTGGTC | 1.83 | 
94 | AATGAAGCCAAAATAGATGAG | 2.53 | 
95 | AATGACAATGTCCAAGACACA | 2.36 | 
96 | AATGATGTTTTCCTATAATAT |  | 0.701
97 | AATGCACCCCCAAACATGGAA | 4.62 | 
98 | AATGCAGAAGATGTAGATTGT | 0.97 | 
99 | AATGCAGTGGCATGCTAAGTA | 0.901 | 
100 | AATGCATATCCTGAGCCATCG |  | 0.577
101 | AATGCCCAAGTGACTGACATC | 0.596 | 
102 | AATGCCCCACTGGCAGCATCT |  | 0.74
103 | AATGCTTCCTGACAATCAACT |  | 0.672
104 | AATGGAGGAATATGACGGAAG |  | 1.49
105 | AATGGCAGCTTATACATAGCA | 1.67 | 
106 | AATGGCCTAATGCACCCCCAA | 5.59 | 
107 | AATGGGAAGACACCTATGGAA |  | 0.708
108 | AATGGGGATGAACCAGACTGC | 2.15 | 
109 | AATGGTAAAATCATCATCTGG | 2.46 | 
110 | AATGGTGTCAATGAAGCCAAA | 2.84 | 
111 | AATGTAAACTGTGAAGATAGT | 1.05 | 
